Measured values reported in paper PMC4336329 (PLoS ONE, 2015).
The campaign covered roughly 310,000 compounds. About 14,000 (4.5%) showed an effect of 50% or more. Effects have a minus sign here. This is one part of the list.

What follows are molecules tested against human ether-à-go-go-related gene (hERG) potassium channel (human, UniProt Q12809) (assay: primary screen, population patch clamp on CHO cells stably expressing hERG).
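Also: peak tail current of the secondary pulse compared with the same well before compound.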

human ether-à-go-go-related gene (hERG) potassium channel, sequence (Q12809 whole entry, looked up): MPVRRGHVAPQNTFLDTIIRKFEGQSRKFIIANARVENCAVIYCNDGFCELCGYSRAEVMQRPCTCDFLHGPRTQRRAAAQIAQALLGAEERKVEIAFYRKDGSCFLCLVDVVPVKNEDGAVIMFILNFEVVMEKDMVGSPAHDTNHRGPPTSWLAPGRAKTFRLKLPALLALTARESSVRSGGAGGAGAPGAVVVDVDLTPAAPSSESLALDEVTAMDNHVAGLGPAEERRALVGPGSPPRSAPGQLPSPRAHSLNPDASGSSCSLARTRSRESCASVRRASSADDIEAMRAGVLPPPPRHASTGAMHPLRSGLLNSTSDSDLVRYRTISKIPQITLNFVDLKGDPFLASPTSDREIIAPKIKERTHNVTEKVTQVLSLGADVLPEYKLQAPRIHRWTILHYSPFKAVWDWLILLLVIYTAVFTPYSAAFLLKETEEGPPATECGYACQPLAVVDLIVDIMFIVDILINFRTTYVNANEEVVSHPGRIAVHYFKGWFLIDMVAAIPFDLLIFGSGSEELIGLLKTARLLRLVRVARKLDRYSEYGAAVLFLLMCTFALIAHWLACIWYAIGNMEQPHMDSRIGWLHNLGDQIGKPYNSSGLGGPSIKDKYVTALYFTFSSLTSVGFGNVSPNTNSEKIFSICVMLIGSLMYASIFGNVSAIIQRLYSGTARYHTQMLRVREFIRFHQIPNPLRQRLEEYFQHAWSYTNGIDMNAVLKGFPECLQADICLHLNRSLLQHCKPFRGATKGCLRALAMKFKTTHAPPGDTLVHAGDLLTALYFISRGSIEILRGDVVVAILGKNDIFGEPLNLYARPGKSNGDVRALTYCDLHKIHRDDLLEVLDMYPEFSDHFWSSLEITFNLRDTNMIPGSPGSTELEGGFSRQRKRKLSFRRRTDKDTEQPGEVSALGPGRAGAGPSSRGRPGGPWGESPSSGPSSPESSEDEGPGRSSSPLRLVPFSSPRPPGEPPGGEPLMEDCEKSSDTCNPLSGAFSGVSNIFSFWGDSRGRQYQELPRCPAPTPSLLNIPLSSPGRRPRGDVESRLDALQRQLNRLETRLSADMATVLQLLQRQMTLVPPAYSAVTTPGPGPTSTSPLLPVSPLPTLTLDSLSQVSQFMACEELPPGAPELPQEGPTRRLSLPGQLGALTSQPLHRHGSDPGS

Row | SMILES | hERG current change (%, negative = inhibition) at 10uM [%]
1 | CCN(CC(=O)Nc1c(F)cccc1F)C(=O)C1CC(=O)N(c2ccc3c(c2)OCCO3)C1 (stereo not shown) | 0.703
2 | Cc1nn(-c2ccccc2)c(N)c1N=Nc1cccc(S(=O)(=O)N2CCOCC2)c1 | 3.19
3 | COc1ccccc1-n1cnnc1SCC(=O)NC1CCS(=O)(=O)C1 (stereo not shown) | 38.3
4 | Cc1cc(OCc2nnc(SCC(=O)O)n2-c2ccccc2)ccc1Cl | 7.09
5 | CCC(=O)N1CCN=C1SCc1ccccc1Cl | 9.36
6 | Cc1c(CN2CCC(CO)(CCOc3ccccc3)CC2)[nH]c2ccc(Cl)cc12 | -71
7 | O=C(O)CC1(CC(=O)Nc2ccc(Oc3cccc(C(F)(F)F)c3)nc2)CCCC1 | 13.7
8 | O=c1[nH]c2ccc(S(=O)(=O)N3CCN(c4ccccc4F)CC3)cc2s1 | -27.1
9 | O=C(CS(=O)(=O)Cc1ccccc1)NCc1ccc2c(c1)OCO2 | -11.7
10 | COc1ccc(Cn2c(C)nnc2-c2cnn(C)c2N)cc1 | 14.8
11 | CC1CCN(S(=O)(=O)c2ccc(Cl)cc2)CC1 | -4.84
12 | O=C(Nc1ccccc1F)n1ncc2cc(Cl)ccc21 | 17.6
13 | O=C(Cc1ccc(F)cc1)NC1CCCC1 | -8.34
14 | Cc1cc(C)cc(NC(=O)c2ccc(N3C(=O)C4CCCCC4C3=O)cc2)c1 (stereo not shown) | 7.26
15 | O=C(O)/C=C\C(=O)O.c1ccc(Sc2ccccc2CN2CCCC2)cc1 | -50.7
16 | O=C(NCc1ccco1)c1cc(-c2ccccn2)nc2ccccc12 | -1.42
17 | CCOc1cc(C2C3=C(CCCC3=O)N(C)C3=C2C(=O)CCC3)cc(Cl)c1O | 7.13
18 | COc1c(Br)cc(Br)cc1/C=N/NC(=O)c1ccncc1 | 1.62
19 | O=C(C1CCN(S(=O)(=O)c2ccccc2)CC1)N1CCN(Cc2ccc3c(c2)OCO3)CC1 | -28.9
20 | Cc1ccc(CCN2C(=O)CCC2(C)C(=O)NCc2cccnc2)cc1 (stereo not shown) | -14.3
21 | COCc1[nH]nc2c1C(c1ccccc1OC)C(C#N)=C(N)O2 (stereo not shown) | 6.54
22 | COc1cc(C(=O)NC2CCCCC2)ccc1OC1CCN(C(C)=O)CC1 | 7.63

Row | SMILES | hERG current change (%, negative = inhibition) at 10uM [%]
23 | C/C(=N\NC(=O)CCc1c[nH]c2ccccc12)c1ccc([N+](=O)[O-])cc1 | -6.49
24 | COc1cc(NC(=O)c2ccc3c(c2)OCO3)ccc1NC(=O)c1cccs1 | 7.33
25 | CC(C)C[C@@H]1NC(=O)[C@H](Cc2ccc(O)cc2)NC(=O)[C@H](CCC(N)=O)NC(=O)c2cc([N+](=O)[O-])cc(I)c2NCC[C@@H](C(N)=O)NC1=O | 11.4
26 | Cc1cc(OC(=O)c2ccc(C(C)(C)C)cc2)c([N+](=O)[O-])c(=O)[nH]1 | 21.8
27 | O=C(NCC(c1cccnc1)N1CCOCC1)c1ccc2c(c1)OCO2 (stereo not shown) | -7.78
28 | Cc1cc2ccccn2c1C(=O)Nc1ccc(Cl)cc1 | 1.3
29 | C=CCn1c(CSc2nc3ccccc3s2)nnc1SCC(=O)NCCN1CCOCC1 | -20.1
30 | O=C(Nc1ccc(N2CCN(C(=O)c3cccs3)CC2)c(Cl)c1)c1ccco1 | 3.96
31 | COc1cccc(NC(=O)OCCN2CCN(Cc3ccccc3)CCC2=O)c1 | -18.8
32 | COc1ccc(NC(=O)/C(C#N)=C/c2ccc(Sc3nncn3C)c([N+](=O)[O-])c2)cc1 | 8.05
33 | Cc1ccc(Nc2nc(NCCO)nc(N3CCCC3)n2)cc1 | -17.7
34 | O=C(c1ccc(Cl)cc1)c1oc2ccccc2c1CS(=O)c1ccc(Cl)cc1 (stereo not shown) | -2.42
35 | Cc1ccc(NC(=O)C2CCCN(S(=O)(=O)c3c(C)noc3/C=C/N(C)C)C2)c(C)c1 (stereo not shown) | 3.67
36 | COc1cc2c(cc1OC)/C(=C/C(=O)c1ccc(C)cc1)NCC2 | -24.5
37 | O=C(Cn1cc(S(=O)(=O)N2CCCC2)c(S(=O)(=O)N2CCCC2)c1)NCc1ccco1 | 17.3
38 | CC(C)Cc1ccc(S(=O)(=O)N2CCOCC2)cc1 | -42.8
39 | Cc1ccc(-n2c(=O)c3c(C)c(C)sc3n(Cc3cc(=O)n4ccccc4n3)c2=O)cc1C | -4.43
40 | O=C(NCc1ccccc1)c1cccnc1N1CCOCC1 | 20.6
41 | CC1(c2nnc(-c3ccccc3)o2)CC(c2ccncc2)=NO1 (stereo not shown) | -8.27
42 | COc1ccc(N(CC(=O)N/N=C(\C)CCc2ccccc2)S(=O)(=O)c2ccc(C)cc2)cc1 | -20.3
43 | Cc1nn(CC(=O)Nc2cccnc2)c(=O)c2ccccc12 | -3.17
44 | O=[N+]([O-])c1ccc(C2CCCC/C2=N/O)c([N+](=O)[O-])c1 (stereo not shown) | 7.62

Row | SMILES | hERG current change (%, negative = inhibition) at 10uM [%]
45 | O=C(NCC1CC1)c1cc(-c2ccccc2)nn1CC1CC(c2cccnc2)=NO1 (stereo not shown) | -25
46 | Nc1nnc(SCC(=O)Nc2nccs2)s1 | 6.72
47 | CC(C)(C)OC(=O)N1CCC(c2c(C(=O)NCC3CCN(C4CCCC4)C3)cnn2-c2ccccc2Cl)CC1 (stereo not shown) | 3.36
48 | CC(C)(C)NC(=O)Cn1c(SCC(N)=O)nc2ccccc21 | 3.99
49 | Cc1onc(NC(=O)NC(=O)c2ccccc2F)c1Br | -1.77
50 | O=C(NCc1cccnc1)C1c2ccccc2C(=O)N1C1CCCCCC1 (stereo not shown) | 2.21
51 | CC1=C(C#N)C(Nc2cc(C)ccn2)(C(F)(F)F)C(=O)N1 (stereo not shown) | 0.371
52 | N#CCN1CCN(CCC(=O)Nc2ccc(OCc3ccccc3)cc2)CC1 | -26.3
53 | COc1c(Cl)cc(Cl)cc1/C=N/n1cnnc1 | -9.63
54 | O=C(Nc1ccc(Br)cc1)C1CCC(=O)N1Cc1ccccc1Cl (stereo not shown) | 5.71
55 | COc1ccc(NS(=O)(=O)c2cc3c(cc2C)NC(=O)CO3)c(OC)c1 | -15.3
56 | COC(=O)Cc1ccc(NC(=O)c2ccc3c(c2)C(=O)N(Cc2cccnc2)C3=O)cc1 | 5.83
57 | CSCCCN1CCC(n2nccc2NC(=O)CCCc2ccccc2)CC1 | -62.5
58 | CCCCSc1cnn(-c2ccccc2)c(=O)c1SCCCC | -0.179
59 | COc1ccc(C)cc1N(CC(=O)N1CCCCCC1)S(=O)(=O)c1ccc(C)cc1 | -20.9
60 | COc1cc(NC(=O)Cn2nc(C(F)(F)F)c(Br)c2C)cc([N+](=O)[O-])c1 | 27.7
61 | CC1(C)Cc2c(oc3ncn4ncnc4c23)CO1 | 16.3
62 | CCCCN(C(=O)c1ccc(C)o1)c1c(N)n(CCCC)c(=O)[nH]c1=O | -7.4
63 | O=C1/C(=C\c2ccc(O)cc2)SC(=S)N1Cc1ccccc1 | 13.1
64 | O=C(NCc1ccc2c(c1)OCO2)c1ccccn1 | 3.65
65 | CSCCC(NC(=O)c1ccco1)C(=O)N(C)CC(=O)Nc1c(Cl)cccc1Cl (stereo not shown) | 11.8
66 | N#Cc1c(NC(=O)c2ccc(Cn3cc(Br)cn3)o2)sc2c1CCCCCC2 | 1.54

Row | SMILES | hERG current change (%, negative = inhibition) at 10uM [%]
67 | COc1ccccc1-c1n[nH]c(=S)n1Cc1ccccc1 | 13.2
68 | Cc1nc(-c2ccccn2)nc(SCC(=O)c2ccccc2)c1Cl | -15.6
69 | Cc1ccc(CNC(=O)COC(=O)c2ccc(Br)cc2)cc1 | 19.3
70 | Cc1ccc(NC(=O)C2CCCN2c2nn3c(=O)cc(C)nc3s2)cc1 (stereo not shown) | -12.2
71 | CCCCOC(=O)CCNc1n[nH]c(=O)[nH]c1=O | -2.31
72 | O=C(NCc1ccco1)c1cccc(S(=O)(=O)N2CCN(Cc3ccccc3)CC2)c1 | -20.9
73 | CCN(CC)C(=O)Cc1c(OC)ccc2cc(Br)ccc12 | -14.3
74 | CCN(CC)CCCn1c2c(c(SCC(=O)Nc3cccc(C)c3C)nc1=O)CCC2 | -55.3
75 | COc1cccc(CC(NC(C)=O)C(=O)NC2CCN(c3nc(C)cc(C)c3C#N)CC2)c1 (stereo not shown) | 0.137
76 | COc1ccc(CN2CCN(Cc3cccn3-c3ncccn3)CC2CCO)c(C)c1C (stereo not shown) | -81.6
77 | CCCCN(C)S(=O)(=O)c1ccc(C(=O)Nc2nnc(-c3cccs3)o2)cc1 | 0.168
78 | CCn1cc(C(=O)O)c(=O)c2cc(F)c(N3CCN(C(=S)Nc4ccc(OC)cc4)CC3)cc21 | 32.4
79 | Cc1ccc(N2CC(C(=O)Nc3nnc(SCC(=O)Nc4cc(C)on4)s3)CC2=O)cc1 (stereo not shown) | 5.51
80 | Cc1cccc(NC(=S)NN(Cc2ccccc2)c2ccccc2)c1C | 11.7
81 | CCOc1ccc(Nc2cc(=O)[nH]c(=O)[nH]2)cc1 | 15.4
82 | COc1cc2c(cc1OC)CN(C(=O)c1cc(S(=O)(=O)N3CCOCC3)c(Cl)cc1Cl)CC2 | -13.7
83 | CCOC(=O)c1c(C)[nH]c(C)c1C(=O)COC(=O)CNC(=O)C1CCCCC1 | -9.67
84 | CC(=O)Nc1ccc(S(=O)(=O)N(C)CC(=O)OCC(=O)N2CCc3ccccc32)cc1 | -3.16
85 | Cc1cc(C)nc(NS(=O)(=O)c2ccc(NC(=O)Cc3ccc(F)cc3)cc2)n1 | 7.98
